Reference: a collection of fitness landscapes (doi:10.1016/j.celrep.2020.107928)
In all, about 81,000 sequences were measured (“one-hybrid fitness for binding parS DNA”: median about -0.17, highest 2% from about 0.51 on). This is one part of the list.

B1: Caulobacter ParB omega fusion; a variant is named by its letters at X, in order, B8GW30 (parent)
chain: MESVVVGEPGMSEGRRGLGRGLSALLGEVDAAPAQAPGEQLGGSREAPIEILQRNPDQPRRTFREEDLEDLSNSIREKGVLQPILVRPSPDTAGEYQIVAGERAWRAAQRAGLKTVPIMVRELDDLAVLEIGIIENVQRADLNVLEEALSYKVLMEKFERTQENIAQTIGKSXSHVANXMRLLXLPDEVQSYLVSGELTAXHARAIAAAADPVALAKQIIEGGLSVRETEALARKAPNLSAGKSKGGRPPRVKDTDTQALESDLSSVLGLDVSIDHRGSTGTLTITYATLEQLDDLCNRLTRGI

Variants of: B1
Assay: one-hybrid fitness for binding parS DNA (scaled: cognate 1, non-cognate 0); higher = stronger binding
Conditions: with parS DNA site
How it was run: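 Values were rescaled so that cognate is 1 and non-cognate is 0. Each is a fitness, the log change in a variant's read ratio to wild type from Illumina reads of plasmids before and after selection, with three replicate libraries pooled and variants under 10 reads dropped. Selection of the Caulobacter ParB libraries, four specificity codons randomised, used E. coli USO with a HIS3 reporter, site 19 bp from the promoter, on M9-minus-histidine with 0.1 mM IPTG and 5 mM 3-AT for 48 hours at 37°C.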

one-hybrid fitness for binding parS DNA, ≤ 0.2:
DSDD
RAED
GLVR
QFIT
HIGT
AAMT
NPPT
DLAC
ARAF
LARH
HTHN
NVGY
IWHC
IKQT
QRLD
KTQL
HTDI
DACV
DQIT
QMHP
KIYG
GAAI
MAPT
YQYR
MCDS
CAGV
ASCK
SHMN
TYEA
PISN
MSGD
PKKS
RYIV
CCCR
QWLT
NPRF
LANC
ASNY
AMPD
YKHL
WMTS
QIWR
FQKS
HNPN
NFPH
RRGE
VKFS
ELNF
CQGG
GMYN
RLEW
AIFS
SFGS
IAHG
GRGG
DEER
TLQA
EMDK
ARKM
PHDS
KCNA
GENR
WAER
GMDR
EEDS
THVI
EKIY
LKVM
HMTI
PHSC
WMLS
KGIR
PRHD
SWGH
EFNV
YPLS
LRNA
TQNF
PSHK
GSME
RIEE
CSSF
HYIC
MKMD
